Laboratory results reported in publication PMC12136788.
Some of the results follow.

T1: UNK ZnF1-6 (called full-length) (human, UniProt Q9C0B0 30-357)
T1 sequence: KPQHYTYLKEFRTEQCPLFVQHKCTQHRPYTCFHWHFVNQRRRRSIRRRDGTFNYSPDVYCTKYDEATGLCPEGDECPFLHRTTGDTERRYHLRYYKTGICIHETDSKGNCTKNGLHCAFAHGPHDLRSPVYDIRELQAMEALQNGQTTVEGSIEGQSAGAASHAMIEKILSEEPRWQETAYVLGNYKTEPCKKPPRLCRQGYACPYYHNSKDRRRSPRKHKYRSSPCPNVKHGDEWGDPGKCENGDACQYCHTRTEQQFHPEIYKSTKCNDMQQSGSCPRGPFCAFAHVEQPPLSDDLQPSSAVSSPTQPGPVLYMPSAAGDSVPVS

B1: chr5:133076644:133076819:+|CDS|ENSG00000170606|unk|total|mutant (ssRNA)
RNA: GGGAGUUCUACAGUCCGACGAUCAAAAUUUGAUGAAGUGUCCGUAAAUCACUUCUGUGAAGAAUUUGGGAAGAAAUACAAGCCCGACAUUAAGUCCAAAAUCCGUGCAUUAUUACGACUCUCUCAGGAGUGUGAGAAACUCAACAACAGAGGAUUGAGCAUCA
B2: chr2:151248206:151248307:-|3pUTR|ENSG00000184898|msi1|total|mutant (ssRNA)
RNA: GGGAGUUCUACAGUCCGACGAUCUUUUUUUAAAGCAAAGAUUAAAUUCCCAUGUAAAACCUUCCUCCCUAUACAAAAAAGAACCGCAGCAUUUUUAUCUUCAAUGACAAAGAAUUGAGUCCAAGAAAAUACUGUAUAAACCUUCAACAGAGGAUUGAGCAUCA
B3: chr2:224511460:224511569:-|CDS|ENSG00000036257|unk|total|mutant (ssRNA)
RNA: GGGAGUUCUACAGUCCGACGAUCGAAAGCCAGAAAUUUUCCGCAGAAAACCGUGCUUCAGUAUAUAUAAAGAAAGCCGAAGCCCGAAUUAAUGAAGAAACCGAACGAGUGAUGCACUGCCUUGACAAAUCAACGGAAGAACCACAACAGAGGAUUGAGCAUCA
B4: chr1:229660051:229660152:+|3pUTR|ENSG00000135763|msi1|FALSE|bound_elsewhere (ssRNA)
RNA: GGGAGUUCUACAGUCCGACGAUCCUCAUUCAUAGUCUCAGUUACCCAGAUAACCUCGGUUGUCACCUUGGAGUAUCUUGUUGUAGUCCCUUUACUAUGUGUAUGUAUAUAGAUGUGCAUAUAAAUAUAUAUAGUAGCUAAAUUCAACAGAGGAUUGAGCAUCA
B5: chr1:93866283:93869944:-|three_prime_utr|ENSG00000067334|control|control|control (ssRNA)
RNA: GGGAGUUCUACAGUCCGACGAUCUUUAUUUACUUAUUAAAGACGUUUGGAAAACUAACACCAUCAUCUAAAUUAAUUUACCAUAGACUGGCCCUGUUCAUACAGGAAUUUGUAUUUGGAAAAAGUUGAUUUGAGAAUCGAUUACAACAGAGGAUUGAGCAUCA
B6: chr10:5457295:5457390:+|3pUTR|ENSG00000173848|msi1_unk|FALSE|overlapping (ssRNA)
RNA: GGGAGUUCUACAGUCCGACGAUCUCUGGAUUCAUCAUGGCUUUCUAAUACCAAUUGUAAUAUUUACAAUAUUCACCAAAACUUAGAAUUUUGCAAAUGCUGGAAUUCUGCCAGUGUUUCUUUGCUAAGCCUUGCAUGCAAAAUCAACAGAGGAUUGAGCAUCA
B7: chr17:64498535:64498649:-|3pUTR|ENSG00000108654|unk|FALSE|unique (ssRNA)
RNA: GGGAGUUCUACAGUCCGACGAUCUUAAACUGAGGCUUUAAUUGAUGUUAAUGCCUUAUGUCAAAUGUAAAGUUAGAAUUUGCUAGGGCUGGGAUAGGGAGUGAUAUUUCUAGGACUUAGACAUUGAAAACUAAUUCAGCCUGUCAACAGAGGAUUGAGCAUCA
B8: chr15:57961136:57961294:-|CDS|ENSG00000128918|control|control|control (ssRNA)
RNA: GGGAGUUCUACAGUCCGACGAUCGAGAUUUAAGACGAUGGAUGAAGUUAUCGAAAGAGCCAAUAACUCAGACUUUGGACUCGUAGCAGCUGUCUUUACUAAUGACAUCAACAAGGCCCUCACAGUGUCUUCUGCAAUGCAAGCCAACAGAGGAUUGAGCAUCA
B9: chr5:138349049:138349150:+|3pUTR|ENSG00000120709|msi1|FALSE|unique (ssRNA)
RNA: GGGAGUUCUACAGUCCGACGAUCGAGAAGGUCUACAGUUAUCAUUAUUUUAAUUCCAUUACUUUCAGUCUGGAAAACUAAGCUAGUCAGAACUGUCAUCUUGCUUCCCAAUCUAAGAACCUGUGGCCCUGGAACACUUUUCAACAACAGAGGAUUGAGCAUCA
B10: ENSG00000152661:stop:overlap|stop_codon|ENSG00000152661|stop_codon|NA|stop_codon (ssRNA)
RNA: GGGAGUUCUACAGUCCGACGAUCCUUCAAGCAGAGCCAGCAGUCGUGCCAGCAGCAGACCUCGGCCUGAUGACCUGGAGAUCUAGAUACAGGCUUGAAAGCAUCAAGAUUCCACUCAAUUGUGGAGAAGAAAAAAGGUGCUGUCAACAGAGGAUUGAGCAUCA
B11: chr6:49492913:49492980:+|3pUTR|ENSG00000031691|msi1_unk|total|mutant (ssRNA)
RNA: GGGAGUUCUACAGUCCGACGAUCUGUUGAAUAUUUUCUACUGUCAUCAAAACAUAUUCCCAAAAAGUAUUAAAAAGGAACCUCCGCACAUUUAUUUUAUUAAAACAAGAAAACCCAAAAUAUAUAAACCUUUUCUUAUUAUGACAACAGAGGAUUGAGCAUCA
B12: chr9:77717828:77717929:-|3pUTR|ENSG00000156052|unk|total|mutant (ssRNA)
RNA: GGGAGUUCUACAGUCCGACGAUCGUGCCUCAUAUCUGAAACAAAGGGAAAUAACACACCCAUUCAAAAGUAAAUAAAUCUCCCCGAAGUUUUUGUUUUUAACAUUUCCAUAUAAAGAGCUCUGUUGAAUGUCAUGAACCGACUCAACAGAGGAUUGAGCAUCA
B13: chr15:76949589:76949706:+|3pUTR|ENSG00000117906|msi1_unk|FALSE|overlapping (ssRNA)
RNA: GGGAGUUCUACAGUCCGACGAUCAUAAAUUUUUGUUUUUGUUCUAAGUAGAUUUAAUUUGGGAACUGACAGGACAAUGUUUUUAGGUUUAGCAUUUUGUUUAAAAACCUUUAAAGAAACCUUUAGAAGGACUUAGACCUCACACAACAGAGGAUUGAGCAUCA
B14: chr1:77949188:77949289:-|CDS|ENSG00000162613|unk|FALSE|unique (ssRNA)
RNA: GGGAGUUCUACAGUCCGACGAUCUUCAAAGGUCAGGCAGUUCCUGCUCCGACUGGGGCUCCUCCAGGUGGUCAGCCAGAUUAUAGUGCAGCCUGGGCUGAGUAUUAUAGACAACAAGCAGCCUAUUAUGCCCAGACAAGUCCCCAACAGAGGAUUGAGCAUCA

These binders were tested against T1, UNK ZnF1-6 (called full-length) (assay: nsRBNS (natural sequence RNA bind-n-seq); RBNS binding buffer (assumed for nsRBNS): 25 mM Tris pH 7.5, 150 mM KCl, 3 mM MgCl2, 0.01% Triton X-100, 500 ug/ml BSA, 20 U/ml SUPERase-In, 4 C; UNK is unkempt and MSI1 is Musashi-1; names of the RNAs are library labels; protein concentration not given here; high values mean tight binding).

Binder | binding signal
B1 | 0.222 enrichment R
B2 | 0.497 enrichment R
B3 | 0.457 enrichment R
B4 | 1.07 enrichment R
B5 | 0.423 enrichment R
B6 | 0.525 enrichment R
B7 | 0.878 enrichment R
B8 | 0.556 enrichment R
B9 | 0.404 enrichment R
B10 | 0.815 enrichment R
B11 | 1.17 enrichment R
B12 | 0.438 enrichment R
B13 | 1.55 enrichment R
B14 | 0.745 enrichment R
